From ChEMBL document CHEMBL1157539, “Thousands of chemical starting points for antimalarial lead identification” (Nature, 2010) come the findings set out here.

In all, about 13,000 compounds were measured (“IFI”: median about 4, highest 2% from about 17 on). The list shows a part of the results.

The experiment in a line: GSK_TCMDC: Inhibition Frequency Index (IFI). The number of non-kinase HTS assays where a compound showed > 50 % inhibition, expressed as a percentage of the number of such assays in which the compound was tested (-0 is zero). It counts as functional.
Compound `Cc1cc(NCCCCCCN)nc(Nc2ccc(Cl)cc2)n1` returned an IFI of 2.92%.

`COc1cc(Cc2cnc(N)nc2N)c2c(c1OC)OC(C)C=C2` (configuration not stated): the IFI came to 0.74%.

`CN1CCC=C(C(=O)NCC(C)(C)c2nc(-c3ccc(Cl)c(O)c3)c(-c3ccncc3)[nH]2)C1` returned an IFI of 0%.

As for `CN(C)Cc1cccc(-c2ccc(NC(=O)c3ccc4c(=O)n(Cc5ccoc5)cnc4c3)cc2)c1`, the IFI was found to be 5.71%.

The compound `Cc1ccccc1Cc1cccc(/N=C(\N)Nc2ccc(Cl)cc2)n1` had an IFI of 31.2%.

Turning to `Cc1cc(N2CCC(NS(=O)(=O)c3cccc4cccnc34)CC2)nc(Nc2cccc(C#N)c2)n1`, the IFI is -0%.

Compound `CCc1ccc(CN2CCCCC(NC(=O)c3cc(-c4ccccc4F)cs3)C2)cc1` (configuration not stated) returned an IFI of 3.64%.

Take `CN1CCN(c2ccnc3ccc(NC(=O)N(C)c4ccc(Cl)c(Cl)c4)cc23)CC1`: the IFI came out at 0.73%.

`COc1ccc2oc(=O)c(C#N)c(O)c2c1` showed an IFI of -0%.

`COc1ccc(C2CC(c3ccccc3)=NN2C(=O)c2ccc(Br)o2)cc1` (configuration not stated) displayed an IFI of 0.68%.

In turn, `CCOC(=O)c1ccc(N=C2SC(=Cc3cc(Br)ccc3O)C(=O)N2C)cc1` returned an IFI of 3.38%.

Compound `CC1(C)N=C(N)N=C(NOCc2ccc(Cl)c(Cl)c2)N1` had an IFI of 0%.

Regarding `CC(C)(CNC(=O)[C@@H]1CCCN(CCOc2ccc(F)c(F)c2)C1)c1nc(-c2ccc(Cl)c(O)c2)c(-c2ccncc2)[nH]1`, the IFI was found to be 5.04%.

As to `O=C(/C=C/c1ccc(Cl)c(Cl)c1)NCCCCCN1CCC(n2c(=O)[nH]c3ccccc32)CC1`, the IFI was determined as 7.41%.

The compound `COc1cccc(-c2ccc(NC(=O)C3CCCN(Cc4cccc(OC)c4O)C3)cc2)c1` (configuration not stated) came in with an IFI of 4.35%.

`Cc1[nH]c(C)c(-c2ccc(Oc3cccc(Cl)c3)cc2)c(=O)c1Br`: the IFI turned out to be 8.21%.

Take `O=C(/C=C/c1ccc(Cl)c(Cl)c1)NCCCCCN1CCC(NC(=S)Nc2ccc(F)cc2F)CC1`: the IFI was determined as 7.14%.

Compound `Cc1cc(NCCC(=O)NCc2cccc(F)c2)nc(NCCc2ccc(F)cc2)n1` gave an IFI of 0%.

`COc1ccc(-c2cccc(NC(=O)c3ccc(C#N)cc3)c2)cc1CN1CCCC1` displayed an IFI of 4.9%.

Compound `COc1ccc(CNCc2ccc(F)cc2)cc1-c1ccc(S(=O)(=O)NCCN2CCCC2)s1` displayed an IFI of 10.3%.

`COc1ccccc1-n1c(SCC(=O)c2ccc3c(c2)CC(=O)N3C)nnc1-c1cccs1` registered an IFI of 6.38%.

For `Cc1nc(C)c(-c2ccc(S(=O)(=O)c3ccc(Cl)cc3)cc2)c(O)c1Cl`, the IFI is 0.78%.

The compound `CCCCc1ccc(NC(=O)Nc2ccc3c(c2)CCNCC3)cc1` yielded an IFI of 4.32%.

The compound `CC1CCCCN1CCCNC(=O)c1cccc(-c2cc3cc(Cl)c(Cl)cc3[nH]2)c1` (configuration not stated) registered an IFI of 4.35%.

`OC(CN1CCN(C2CCCCC2)CC1)Cn1c2ccccc2c2cc(Br)ccc21` (configuration not stated) gave an IFI of 3.17%.

For `COCn1ccc2c3c(N)nc(N)nc3ccc21`, the IFI turned out to be 1.4%.

On to `CN(C)CCNCc1ccc(-c2ccc(-c3nc4ccccc4[nH]3)s2)cc1`, for which the IFI came to 3.96%.

Turning to `CCc1ccccc1NC(=O)CN1CCN(c2ncnc3scc(-c4ccc(F)cc4)c23)CC1`, the IFI turned out to be 1.85%.

With `Nc1oc2c(CN3CCCCCC3)c(O)ccc2c(=O)c1-c1nc2ccccc2s1`, the IFI stood at 4.13%.

`COc1c(C)[nH]c(C)c(-c2ccc(Oc3cccc(C(F)(F)F)c3)cc2)c1=O`: the IFI is 10.6%.

In turn, `O=C(/C=C/c1ccc(Cl)c(Cl)c1)NC1CCC(CN2CCC(c3nc4ccccc4n3CCCO)CC2)CC1` (configuration not stated) registered an IFI of 3.76%.

Regarding `Oc1ccc(CCNCCCCCCNCCCc2ccc(Cl)cc2)cc1O`, the IFI was determined as 6.57%.

Take `CCCCC(NCC)c1ccc(OCCOc2ccc(C(CCCC)NCC)cc2)cc1` (configuration not stated): the IFI was 8.82%.

Take `CN1CCC(C(=O)Nc2cccc(-c3ccc(-c4nc5cc(C(F)(F)F)ccc5[nH]4)cc3)c2)CC1`: the IFI is 8.55%.

`CCCCCCc1cc(OC)c(OC)cc1C(C)Nc1ccnc2cc(Cl)ccc12` (configuration not stated) returned an IFI of 4.23%.

In turn, `COc1ccc(N2CCN(CCCCNC(=O)c3ccc(NC(=O)c4ccc(C(F)(F)F)cc4)cc3)CC2)c(OC)c1` gave an IFI of 1.77%.

`CC(C)(CNC(=O)C1CCN(CCOc2ccc(Cl)cc2)CC1)c1nc(-c2ccc(Cl)c(O)c2)c(-c2ccncc2)[nH]1` yielded an IFI of 8.22%.

`COc1ccc(NC(=O)[C@H](Cc2ccccc2)Nc2cc(C)nc(NCC3CCCCC3)n2)cc1` returned an IFI of 7.14%.

The compound `CC(Oc1cc(-n2cnc3ccc(NC(=O)CCN4CCCCC4)cc32)sc1C(N)=O)c1ccccc1Cl` (configuration not stated) displayed an IFI of 9.35%.

`COc1ccc2nccc([C@@H](O)CN3CCC(NC(=O)c4cc5c(F)cc(F)cc5[nH]4)CC3)c2n1` yielded an IFI of 5.26%.

`Cc1cc(-c2ccc(CNCc3ccc(F)cc3)cc2)ccc1S(=O)(=O)NCCN1CCCC1` displayed an IFI of 16.2%.

In turn, `CC(C)NCC(O)Cn1c2ccc(Br)cc2c2cc(Br)ccc21` (configuration not stated) yielded an IFI of 10.6%.

As to `Cc1nn(C2CCS(=O)(=O)C2)c(C)c1C1Nc2ccccc2C(=O)N1Cc1ccc2c(c1)OCO2` (configuration not stated), the IFI came out at 0%.

On to `CCCCN(CCCC)CCCN(CCCN(CCCC)CCCC)c1cc(C)nc(Nc2ccc3cc(Br)ccc3c2)n1`, for which the IFI came out at 15.2%.

Take `Cc1c(-c2ccc(C(=O)NC3CC(C)(C)NC(C)(C)C3)cc2)[nH]c2cc(Cl)c(Cl)cc12`: the IFI was 16.7%.

In the case of `CCCCCCN1CCC(NCc2cccc3ccccc23)CC1`, the IFI worked out at 5.44%.

`Cc1cc(C(=O)CN2C(=O)NC3(CCOc4ccccc43)C2=O)c(C)n1Cc1ccco1` (configuration not stated): the IFI was determined as 1.41%.

Consider `Cc1ncc([N+](=O)[O-])n1CCOC(=O)NC(NCC1COc2ccccc2O1)C(Cl)(Cl)Cl` (configuration not stated), for which the IFI is 0%.

Consider `CCCc1ccc(-c2csc(NC(=O)c3ccc([N+](=O)[O-])o3)n2)cc1`, for which the IFI came to 8.24%.

`COc1ccc2nccc([C@H](O)CN3CCC(NCc4ccc5c(c4C)OCCO5)CC3)c2n1` returned an IFI of 1.92%.

Take `O=C(N[C@@H](CC1CCCCC1)C(=O)NCc1cccc(C(F)(F)F)c1)c1ccc(O)c(-c2ccc(Cl)c(Cl)c2)c1`: the IFI was determined as 2.94%.

In turn, `Cc1nn(-c2ccccc2)c2sc(C(=O)N(CCCN(C)C)c3nc(-c4ccccc4)cs3)cc12` gave an IFI of 9.09%.

Turning to `COc1ccc(Nc2nccc(-c3ccc4ccnc(NCCCCN)c4c3)n2)cc1`, the IFI turned out to be 4.5%.

`COc1ccc(CN2CCCN(Cc3ccc(C(=O)Nc4ccc(Cl)cc4)cc3)CC2)cc1` had an IFI of 10.3%.

The compound `Cc1cc(=NN=Cc2ccc(F)cc2)c2cc(F)ccc2[nH]1` had an IFI of 2.86%.

For the compound `COc1ccc(CCNCCCCCNCCc2ccc(Cl)cc2)cc1OC`, the IFI is 3.57%.

Turning to `C=CCc1cc(Cc2cnc(N)nc2N)cc(CCC)c1O`, the IFI is 2.17%.

`COc1ccc(N2CCN(CCCCNC(=O)c3ccc(NC(=O)c4ccc(Cl)c(Cl)c4)cc3)CC2)c(OC)c1` gave an IFI of 5.31%.

`N#CCCN1CCN(Cc2cccc(-c3ccc(-c4nc5cc(F)ccc5[nH]4)cc3)c2)CC1` registered an IFI of 5.63%.

`O=C(Cn1c(CCc2cccc(F)c2F)nc(=O)c2ccccc21)N(CCCN1CCCC1)Cc1ccc(-c2ccc(C(F)(F)F)cc2)cc1`: the IFI stood at 8.89%.

Turning to `CCN1CCN(c2cc(C)c3cc(NC(=O)c4cccc(C(F)(F)F)c4)ccc3n2)CC1`, the IFI worked out at 3.38%.

Turning to `NC(=O)C1CCN(Cc2cccc(-c3ccc(-c4nc5cc(C(F)(F)F)ccc5[nH]4)cc3)c2)CC1`, the IFI is 4.85%.

The compound `COc1ccc2nc3ccccc3c(NCCN3CCN(C)CC3)c2c1` yielded an IFI of 0.7%.

For the compound `Cc1ccc(C(=O)Cn2nc(-c3ccc(C)c(S(=O)(=O)N4CCCCC4)c3)ccc2=O)cc1`, the IFI amounted to 2.38%.

Take `N#CC(c1cccc(Cl)c1)c1ccc2c(C(F)(F)F)cc(C(F)(F)F)nc2n1` (configuration not stated): the IFI is 6.3%.

Compound `CCOC(=O)c1cccc(NC(=O)Nc2cc(C)nc3ccccc23)c1` had an IFI of 7.52%.

The compound `COc1ccc2[nH]c(C)cc(=NN=Cc3cccc(Cl)c3)c2c1` displayed an IFI of 4.48%.

For the compound `COc1c(C2CCN(CCCCNC(=O)c3cc(-c4ccc(Cl)cc4)sc3C)CC2)ccc2c1CCCC2`, the IFI was 8.33%.

For the compound `O=C(CSc1nccn1Cc1ccco1)Nc1cc(C(F)(F)F)ccc1Cl`, the IFI stood at 8.33%.

On to `NCC1CCCN1Cc1cccc(-c2ccc(-c3nc4cc(C(F)(F)F)ccc4[nH]3)s2)c1` (configuration not stated), for which the IFI came to 10.1%.

Turning to `Cc1cccc2[nH]c(-c3cc(-c4cn[nH]c4)cnc3N)nc12`, the IFI is 1.49%.

Compound `O=C(NCc1ccccc1F)c1ccc(N2CCC(NCc3cccc(-n4cccn4)c3)CC2)cc1` yielded an IFI of 2.7%.

As to `Cn1cnc2c(Nc3ccncc3)nc(-c3ccc(OC(F)(F)F)cc3)nc21`, the IFI was determined as 5.11%.

On to `OC(c1ccccc1)C1CN(CCC2CC3CCC2C3)CCC1(O)c1ccccc1` (configuration not stated), for which the IFI came to 2.94%.

With `CN(C)CCN(C)Cc1nc(-c2ccc3c(Nc4ccc(Oc5ccccc5)cc4)ccnc3c2)cs1`, the IFI was determined as 9.16%.

As to `Cc1nc(N)nc(N)c1C#CC1CCCC1`, the IFI was 5.15%.

On to `O=S(=O)(Nc1cc2c(cc1O)CCNCC2)c1ccc(-c2ccc(Cl)cc2)cc1`, for which the IFI amounted to 8.15%.

The compound `CN1CCCC(CN2CCN(Cc3cccc(-c4ccc(-c5nc6ccccc6[nH]5)s4)c3)CC2)C1` (configuration not stated) registered an IFI of 5.63%.

As to `Cc1ccccc1Cn1c(CN2CCC(C(=O)NC3CC3)CC2)cc2ccccc21`, the IFI was found to be 5.26%.

As for `COc1ccc(OCc2ccccn2)c(C2CCN(CCCCNC(=O)c3ccc(NC(=O)c4ccc(Cl)cc4)cc3)CC2)c1`, the IFI was determined as 1.54%.

In turn, `CCNCCCC(C)Nc1ccnc2cc(Cl)ccc12` (configuration not stated) gave an IFI of -0%.

In turn, `Nc1nc(N)c2cc3ccc(OCc4ccccc4)cc3nc2n1` gave an IFI of 7.04%.

Compound `O=C(Nc1cccc(CN2CCCN(Cc3cccc(F)c3)CC2)c1)c1ccc(Cl)c(Cl)c1` gave an IFI of 6%.

Regarding `Oc1cc(Nc2ccnc3cc(I)ccc23)c(F)cc1Cl`, the IFI was 5.8%.

For the compound `CC(C)CCN1CCC(Oc2ccc(NC(=O)c3ccco3)cc2Cl)CC1`, the IFI worked out at 4.84%.

Regarding `COc1cc(F)c2nccc([C@@H](O)CN3CCC(NCc4ccc5c(n4)NC(=O)CS5)CC3)c2c1`, the IFI was 3.01%.

As for `Cc1cccc2nc(-c3ccc(-c4cccc(NC(=O)Nc5ccsc5)c4)cc3)[nH]c12`, the IFI amounted to 5%.

The compound `Cc1cc(N2CCC(N(C)C)C2)nc(Nc2ccc(Cl)cc2)n1` (configuration not stated) had an IFI of 1.12%.

For the compound `Cc1ccc(NC(=O)NC2CCN(CCCCCNC(=O)/C=C/c3ccc(Cl)c(Cl)c3)CC2)cc1C`, the IFI was found to be 8%.

`Cc1nnc(N2C(=N)SC(=Cc3ccc(-c4ccc(OC(F)(F)F)cc4)o3)C2=O)s1` gave an IFI of 10.7%.

Compound `CCN(CC)CCCC(C)Nc1c(-c2ccc(Br)cc2)cnc2ccccc12` (configuration not stated) registered an IFI of 1.43%.

On to `O=C(Nc1ccc(Cl)cc1)N[C@H]1CCN(Cc2ccc(OCCCN3CCCCC3)cc2)C1`, for which the IFI amounted to 7.14%.
